Reference: PubChem BioAssay AID1671194 (National Center for Advancing Translational Sciences (NCATS), 2021)
In all, about 140,000 compounds went through this assay and about 240 (0.17%) were called active. This list was built around the results that the source calls inconclusive (neither active nor inactive); the mix of calls is not that of the screen. The call rests on the fitted dose curve; in most records, active means well fitted inhibition curve with a large enough effect; inconclusive means small, poorly fitted or top-dose-only effect; inactive means no such curve, though single readings can be large or run the other way. Potencies beside an inconclusive call are fits to weak or partial responses and may not hold up.

Experiment: Primary qHTS assay for inhibitors of alpha-synuclein gene (SNCA) expression; further: nearly all actives have a fitted effect of over 45% in size;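 on activity change, negative = inhibition: plate controls were DMSO cells for no effect and cell-free wells for full effect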
Settings: HEK-293 SNCA-luciferase knock-in, luminescence, 24 h; activity change, negative = inhibition: at 57.2 µM (top of the series) unless noted
Potency means the concentration at half of the fitted maximal effect; tags describe the fitted curve by direction and shape.

Activity change, negative = inhibition, inactive:
Cc1cccc(CNC(=O)c2c(C)noc2-c2ccc3c(c2)OCO3)c1 -1.92%
CCn1nccc1C(=O)N1CCC(c2noc(COc3ccc(F)cc3)n2)C1 (stereo not drawn) -28.3%
COc1ccccc1-c1ccc(CN2CC3CCC(C2)N3c2ccc(C(F)(F)F)cc2)cc1 4.81%
Cn1c(CO[C@H]2CN(Cc3cnc4ccccc4c3)C[C@H]2F)nc2ccccc21 0.0495% [at 87.6 µM]
COc1ccc(CN2CC(Oc3ccc(F)cc3C)C2)cc1 -20.1% [at 87.6 µM]
CC1(COCC2CC2)COc2ccc(C(=O)Nc3cccc([S+](C)(=O)[O-])c3)cc2N1 (stereo not drawn) -8.27% [at 87.6 µM]
COc1ccccc1-c1ccnc(-c2nnc(C)n2CCN2CCOCC2)c1 -7.66% [at 87.6 µM]
O=C(Cc1cccc(Cl)c1)NC1CCCN(c2ccnc3ccnn23)C1 (stereo not drawn) 14.7%
CCCNC(=O)N[C@@H]1CCC[C@@H](C(=O)NCCOC)CC(=O)N(C)C1 -13.8% [at 87.6 µM]
O=C(NC1CCN(C(=O)c2ccc(-c3cccs3)cc2)CC1)c1ccc(F)cc1 -18.4%
Cc1ccccc1C(=O)NC1CCN(c2nc3ncccc3o2)CC1 2.76% [at 87.6 µM]
COc1cccc(-c2nc3cnccn3c2NCCC(=O)N2CCCC(C)C2)c1 (stereo not drawn) 1.53%
O=C(c1ccoc1)N1CCC(Nc2cccnc2)C1 (stereo not drawn) -32%
CCN1C(=O)C2CC3(CCN(C(=O)Nc4ccc5c(c4)OCCO5)CC3)CN2C1=O (stereo not drawn) 74.1%
CC(C)(C)c1ccc(-c2cc(C[C@H]3CNCC[C@H]3CC(=O)N3CCC(Cc4ccccc4)CC3)no2)cc1 -3.9%
Cc1cccc(C(=O)N2CCC3(CC2)OCC(C(=O)N2CCOCC2)N3C(=O)c2ccc(F)cc2)c1 (stereo not drawn) 0.337%
O=C(c1coc(COc2ccc(F)cc2Cl)n1)N1CCCCO1 90.1%
CNCCN1C(=O)CC[C@H]2CN(C(=O)c3ccc(Cl)cn3)CC[C@H]21 -2.39%
COc1nccc(N2CCC(CC(=O)NCc3ccc(F)c(Cl)c3)CC2)n1 -21.1%
O=C(C1CCCN1C(=O)C1CCCC1)N1CCC(N2Cc3cccn3C2=O)CC1 (stereo not drawn) 12%

Potency, inconclusive:
CC(C)(C)C(=O)N1CCC(C(=O)N2CCC(c3nc4ncccc4[nH]3)CC2)C1 (stereo not drawn) 7.94 µM [inhibitor, full curve]
Cc1cccc(N2CCN(S(=O)(=O)c3ccc4c(c3)CCCN4C(=O)C3CCC3)CC2)c1C 39.8 µM [inhibitor, single point]
O=C(Nc1ccc(Oc2ccccc2)cc1)N[C@H]1CO[C@H]2[C@@H]1OC[C@@H]2n1nnnc1Oc1ccccc1 14.1 µM [inhibitor, partial curve, poor fit]
COc1ccccc1CCNC(=O)CCc1c(C)c2cc3c(C)coc3c(C)c2oc1=O 5.01 µM [inhibitor, single point]
O=C1Cc2c(-c3ccc(Oc4ccccc4)cc3)n[nH]c2CN1Cc1ccccc1F 56.2 µM [inhibitor, single point]
O=C(NCC1CN([S+](=O)([O-])c2cccnc2)CC12CN(c1ccccc1)C2)Nc1ccccc1 (stereo not drawn) 3.55 µM [inhibitor, single point]
Cc1ccc(S(=O)(=O)N2CCC(Oc3ncccc3C(=O)N3CCOCC3)C2)cc1 (stereo not drawn) 8.91 µM [inhibitor, single point]
Cc1ccc(C(=O)Nc2ccc(CN3CCN(C)CC3)c(C(F)(F)F)c2)cc1C#Cc1cnc2cccnn12 0.0961 µM [inhibitor, full curve]
Cn1cc(-c2cccc(C(F)(F)F)c2)c2nc(CNc3ccccc3)cn2c1=O 56.2 µM [inhibitor, single point]
Cc1ccc(NCc2cccn2-c2nnc(N3CCC(C(=O)NCc4ccc(OC(C)C)cc4)CC3)s2)cc1 39.8 µM [inhibitor, single point]
CSCC(=O)NCCC[C@H](NC(=O)[C@@H]1[C@@H](NC(=O)Nc2ccc(F)cc2F)CCN1C(=O)CSC)C(N)=O 20 µM [inhibitor, single point]
Cc1ccc(N2C(=O)CS(=O)(=O)C23C(=O)N(Cc2cccc(F)c2)c2ccccc23)cc1Cl (stereo not drawn) 2.51 µM [inhibitor, single point]
CC(Oc1cccc(Cl)c1)C(=O)N1CCN(c2cc(-c3cccs3)[nH]n2)CC1 (stereo not drawn) 39.8 µM [inhibitor, single point]
O=C(CN1C(=O)C(c2ccccc2)=NC12CCCC2)Nc1ccc(C(F)(F)F)cc1 39.8 µM [inhibitor, single point]
COc1cc(OC)c(NC(=O)Cn2c(C)cc3nc4n(c(=O)c32)CCCCC4)cc1Cl 28.2 µM [inhibitor, single point]
Cc1nn2c(c1-c1ccccc1N1CCCC1)N(C(=O)C1CCOCC1)CCC2 25.1 µM [inhibitor, partial curve]
Cc1cc(C(=O)N2CCC(N3C[C@H](O)C[C@H]3C(=O)NC3CCCCC3)CC2)n(C)n1 10 µM [inhibitor, partial curve, poor fit]
COCc1nnc2n1CCC(NC(=O)c1cc(C3CC3)[nH]n1)CC2 (stereo not drawn) 8.91 µM [inhibitor, single point]
COc1cccc(OC(=O)CSc2nnc(-c3ccccc3OC)o2)c1 28.2 µM [inhibitor, single point]
Cc1ccc(N2CCN(C(=O)C3CCCN(c4cnn(Cc5ccccc5)c(=O)c4)C3)CC2)cc1 (stereo not drawn) 22.4 µM [inhibitor, single point]
O=C(NCC1CN(C(=O)CCc2ccccc2)CC12CN(c1ccccc1)C2)c1ccccc1 (stereo not drawn) 39.8 µM [inhibitor, single point]
CN1CC2(CCN(C(=O)CC3CCCCC3)CC2)CC1C(=O)N1CCOCC1 (stereo not drawn) 8.91 µM [inhibitor, single point]
COc1ccc(CN2CCCC3(C2)C(=NC2CCCCC2)NC(=O)N3c2cccc(OC)c2)cc1 (stereo not drawn) 25.1 µM [inhibitor, partial curve]
COc1cccc(CN2CC3(CCN(C)C3)c3cc(C(=O)NC4CCCCC4)ccc32)c1 (stereo not drawn) 11.2 µM [inhibitor, single point]
COc1cc(CCC(=O)NC2CCc3nnc(C4CC4)n3CC2)on1 (stereo not drawn) 10 µM [inhibitor, partial curve, poor fit]
CC1(COc2cccnc2)COc2ccc(C(=O)N3CCN(c4ccccn4)CC3)cc2N1 (stereo not drawn) 15.8 µM [inhibitor, partial curve, poor fit]
O=C(Cc1cccs1)N1CCC(c2noc(-c3cccnc3)n2)C1 (stereo not drawn) 0.708 µM [inhibitor, full curve, poor fit]
CC(=O)N1CCc2ccc(C(=O)NC3CCCCCC3)cc21 1.41 µM [inhibitor, full curve, poor fit]
O=C1Nc2ccccc2C12CN(Cc1ccc(C(F)(F)F)cc1)C2 44.7 µM [inhibitor, single point]
CC1(C)O[C@H]2[C@@H](O1)[C@@H](C(=O)Nc1ccccc1O)O[C@@H]1OC(C)(C)O[C@@H]12 39.8 µM [inhibitor, single point]
Cc1cccc(C)c1Nc1c(-c2ccsc2)nc2ccccn12 39.8 µM [inhibitor, single point]
O=C(Nc1cccc(C(=O)N2CCCCC2)c1)c1nsc2ccccc12 39.8 µM [inhibitor, single point]
COc1ccc(CCC(=O)N2CCC3(CC2)CN(Cc2ccc(OC)cc2)C3=O)cc1 39.8 µM [inhibitor, single point]
O=C(NCc1ccco1)c1ccc2c(c1)n(Cc1ccc(F)cc1)c(=O)c1ccnn12 39.8 µM [inhibitor, single point]
COc1ccc(CN(CCC(c2ccc3c(c2)OCO3)c2ccccc2OC)C(C)=O)cc1 (stereo not drawn) 39.8 µM [inhibitor, single point]
COc1ccc(CNC(=O)C(=O)NCC(c2cccs2)S(=O)(=O)c2ccc(F)cc2)cc1 (stereo not drawn) 7.08 µM [inhibitor, single point]
O=C(Cc1ccsc1)N1CCC2(CC1)CC(N(Cc1ccccc1)C1CC1)CCO2 (stereo not drawn) 39.8 µM [inhibitor, single point]
CC(=O)c1ccc(N2CCN(C(=O)Nc3cn(CC(C)C)c(=O)c4ccccc34)CC2)cc1 3.98 µM [inhibitor, full curve, poor fit]
COCCn1cnc2ccc(-c3cccc(O)c3)nc2c1=O 7.94 µM [inhibitor, single point]
COc1ccc(C)cc1Nc1c2c(nc3ccccc13)CCC2 22.4 µM [inhibitor, partial curve, poor fit]
CCOC(=O)N1CCC(NC(=O)c2ccc3c(c2)N(Cc2ccc(F)cc2)C(=O)c2ccccc2S3=O)CC1 (stereo not drawn) 10 µM [inhibitor, partial curve, poor fit]
Cc1ccccc1OCC(=O)Nc1ccc2[nH]c(=O)sc2c1 39.8 µM [inhibitor, single point]
COc1ccc(/C=C/c2ccc3c(c2)C(=O)N2C[C@@H](NC(=O)c4cccn4C)C[C@H]2C(=O)N3)cc1 8.91 µM [inhibitor, full curve, poor fit]
